Target: SARS-CoV-2 main protease (3CL) enzyme (Mpro) (Severe acute respiratory syndrome coronavirus 2, UniProt P0DTD1)
Experiment: Mpro Inhibition Screening Assay (3CL Fluorogenic Assay Kit, FRET substrate)
Settings: for inhibition at 100 µM: read-out: % Inhibition of Mpro @ 100 μM (Single dose); for inhibition at 1 µM: read-out: % Inhibition of Mpro @ 1 μM (Single dose)

| Compound | inhibition at 100 µM [%] | inhibition at 1 µM [%] | % Inhibition of Mpro @ 1 μM (Single dose) (1 μM, single dose) [%] |
| --- | --- | --- | --- |
| COc1cccc2[nH]c(C(=O)N[C@@H](CC(C)C)C(=O)N[C@H](C#N)C[C@@H]3CCNC3=O)cc12 [Compound 27] | 33 | – | – |
| COc1cccc2[nH]c(C(=O)N[C@@H](Cc3cccc(F)c3)C(=O)N[C@H](C#N)C[C@@H]3CCNC3=O)cc12 [Compound 32, N—((S)-1-(((S)-1-cyano-2-((S)-2-oxopyrrolidin-3-yl)ethyl)amino)-3-(3-fluorophenyl)-1-oxopropan-2-yl)-4-methoxy-1H-indole-2-carboxamide] | 0 | 8 | – |
| CC(C)(C)OC(=O)N[C@H](C(=O)N[C@@H](CC1CC1)C(=O)N[C@H](C#N)C[C@@H]1CCNC1=O)C(C)(C)C [Compound 35, tert-Butyl ((S)-1-(((S)-1-(((S)-1-cyano-2-((S)-2-oxopyrrolidin-3-yl)ethyl)amino)-3-cyclopropyl-1-oxopropan-2-yl)amino)-3,3-dimethyl-1-oxobutan-2-yl)carbamate] | – | 22 | – |
| N#C[C@H](C[C@@H]1CCNC1=O)NC(=O)[C@H](CC1CCCCC1)NC(=O)CCc1cc(F)cc(F)c1 [Compound 43] | – | 20 | – |
| CC(C)C[C@H](NC(=O)CCc1cc(F)cc(F)c1)C(=O)N[C@H](C#N)C[C@@H]1CCNC1=O [Compound 46, (S)—N—((S)-1-cyano-2-((S)-2-oxopyrrolidin-3-yl)ethyl)-2-(3-(3,5-difluorophenyl)propanamido)-4-methyl-pentanamide] | – | 21 | – |
| N#C[C@H](C[C@@H]1CCNC1=O)NC(=O)[C@H](Cc1cccc(F)c1)NC(=O)CCc1cc(F)cc(F)c1 [Compound 47] | – | < 1 | – |
| CC(C)C[C@H](NC(=O)COc1ccc(F)cc1)C(=O)N[C@H](C#N)C[C@@H]1CCNC1=O [Compound 51, (S)—N—((S)-1-cyano-2-((S)-2-oxopyrrolidin-3-yl)ethyl)-2-(2-(4-fluorophenoxy)acetamido)-4-methylpentanamide] | 0 | – | – |
| COc1cccc2[nH]c(C(=O)N[C@@H](CC(C)C)C(=O)N[C@@H](C[C@@H]3CCNC3=O)C(N)=O)cc12 [Compound 53] | 35 | 0 | – |
| COc1cccc2[nH]c(C(=O)N3CC(F)(F)C[C@H]3C(=O)N[C@H](C#N)C[C@@H]3CCNC3=O)cc12 [Compound 83, (S)—N—((S)-1-cyano-2-((S)-2-oxopyrrolidin-3-yl)ethyl)-4,4-difluoro-1-(4-methoxy-1H-indole-2-carbonyl)pyrrolidine-2-carboxamide] | 64 | – | – |
| COc1cccc2[nH]c(C(=O)N3[C@@H]4CC[C@@H](C4)[C@H]3C(=O)N[C@H](C#N)C[C@@H]3CCNC3=O)cc12 [Compound 84, (3S)—N—((S)-1-cyano-2-((S)-2-oxopyrrolidin-3-yl)ethyl)-2-(4-methoxy-1H-indole-2-carbonyl)-2-azabicyclo[2.2.1]heptane-3-carboxamide] | 54 | – | – |
| COc1cccc2[nH]c(C(=O)N[C@H](C(=O)N[C@H](C#N)C[C@@H]3CCNC3=O)C(C)(C)C)cc12 [Compound 123] | 7 | – | – |
| CC(C)C[C@H](NC(=O)c1cc2ccccc2[nH]1)C(=O)N[C@H](C#N)C[C@@H]1CCNC1=O [Compound 124] | 79 | – | – |
| CC(C)C[C@H](NC(=O)c1cc2ccccc2[nH]1)C(=O)NC(C=O)Cc1ccc(F)cc1 (some centres unmarked) [Compound 125] | 24 | – | – |
| CC(C)C[C@H](NC(=O)[C@@H](NC(=O)C(F)(F)F)C(C)(C)C)C(=O)N[C@H](C#N)C[C@@H]1CCNC1=O [Compound 128] | – | 71 | – |
| (1R,2S,5S)—N—((S)-1-cyano-2-((S)-2-oxopyrrolidin-3-yl)ethyl)-3-(3-(3,5-difluorophenyl)propanoyl)-6,6-dimethyl-3-azabicyclo[3.1.0]hexane-2-carboxamide [Compound 44] | – | – | 10 |

From US20260146062A1, “COMPOUNDS AND METHODS FOR TREATING DISEASES CAUSED BY VIRUSES AND BACTERIA” (The Trustees of Indiana University, priority 2022, published 2026)
